Our source for the viability, T/C values is PubChem BioAssay AID1918946 (Molecular Pharmacology Branch, DTP, NCI, 2023).

The source holds more than one record for some entries. The list is limited to them. The source may hold further records. Values given together are repeats in other runs, samples, wells, individuals or studies. Brackets with × count equal records among those shown. Marks such as [2022-09] give the month of the run.

The assay deals with 885512-296-R-J2-PDC complex spheroid viability. As to the kind of experiment: Anticancer human tumor 885512-296-R-J2-PDC patient-derived breast carcinoma cell line growth inhibition. The settings on record: stronger effect = lower value. The text has this:
Multicellular complex tumor spheroid response to LSD1 Inhibitor Iadademstat in combination with a variety of drugs and investigational agents in selected tumor cell lines
The current study was undertaken to assess response to LSD1 inhibitors in combination with standard-of-care drugs and investigational agents in solid tumor complex spheroid models as well as in the K-562 leukemia. Complex spheroids include a stromal component modeled by human endothelial cells (HUVEC) and fibroblasts modeled by human mesenchymal stem cells (MSCs). The concentration ranges selected for each drug and investigational agent were based upon clinically achievable concentrations if the clinical Cmax of the agent was known.
Compounds. The drugs and investigational agents used in this study are listed on Table 1. All of the agents used, including staurosporine (NSC755774) and gemcitabine (NSC613327), were obtained from the Developmental Therapeutics Program, NCI. FDA-approved anticancer drugs are available from the NCI at http://dtp.nci.nih.gov/branches/dscb/oncology_drugset_explanation.html. Drugs and investigational agents were >95% pure by proton nuclear magnetic resonance (NMR) and liquid chromatography/mass spectrometry (LC/MS). Stock solutions were prepared at 400x in DMSO, stored at -70 degrees C, and diluted in fresh medium prior to their use. The final concentration of DMSO in cell culture wells never exceeded 0.25% (v/v). The FDA-approved anticancer drug set is available from the Developmental Therapeutics Program at https://dtp.cancer.gov/organization/dscb/obtaining/available_plates.htm. All drugs and investigational agents were tested over a range starting from a high concentration at or near the clinical Cmax and decreasing in half-log increments. If the clinical Cmax for an agent had not been determined, the highest concentration tested was 10 microM.
Cell Lines. The patient-derived cancer cell (PDC) lines: 292921-168-R-J2-PDC, K24384-001-R-PDC, and 521955-158-R2-J5-PDC pancreatic carcinomas, 556581-035-R-J1 ovarian carcinoma, 324938-238-R-J1-PDC, 855422-203-R-J1-PDC and 883617-216-R-J1-PDC urothelial bladder carcinomas, 743489-274-T-PDC renal cell carcinoma, 138582-R-J1 Merkel cell tumor, K60290-347-R-J1 and K57222-313-R-J1-PDC glioblastomas, 653999-131-R-J2-PDC, LG0703-F948-PDC, and 349418-098-R-PDC non-small cell lung carcinomas, 885512-296-R-J2-PDC, 171881-019-R-J1-PDC breast carcinomas and 186277-243-T-J2-PDC and 233499-124-R-J2-PDC colon carcinomas were obtained from the NCI Patient-Derived Models Repository (PDMR, https://pdmr.cancer.gov). The established cell lines NCI/ADR-RES (RRID:CVCL_14520 and OVCAR-5 (RRID:CVCL_1628) ovarian carcinomas, 786-O (RRID:CVCL_1051) and A498 (RRID:CVCL_A498) renal cell carcinoma, NCI-H211 (ATCC, cat. CRL-5824; RRID:CVCL_1529), NCI-H196 (ATCC, cat. CRL-5823, RRID:CVCL_1509), SW 1271 (ATCC, cat. CRL-2177, RRID:CVCL_1716) and NCI-H1876 (ATCC, cat. CRL-5902, RRID:CVCL_1503) small cell lung carcinomas, MDA-MB-231 (RRID:CVCL_0062) and MDA-MB-468 (RRID:CVCL_0419)breast carcinomas (10-12). Pooled donor human umbilical vein endothelial cells (HUVEC, Lonza, cat. CC-2519) and human mesenchymal stem cells (hMSC, Lonza, cat. PT-2501) were purchased from Lonza (Walkersville, MD).
Cell Culture. All cells were maintained in an incubator at 37 degrees C and 5% CO2 with 95% humidity. The PDC lines were cultured according to standard operating procedures established by the NCI PDMR (https://pdmr.cancer.gov). Briefly all PDCs were thawed and cultured in Matrigel-coated flasks prepared with a working solution of 1X Ham's F-12 nutrient mix, without supplementation (Invitrogen, Waltham, MA, cat. 11765054), 100 U/mL penicillin-streptomycin (Invitrogen, cat. 15140122), and 2.5% Matrigel (Corning Inc., Corning, NY, cat. 354248) for the first three passages. […]
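Further: spheroids exposed to agents for 7 days before viability read.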

As to `CC(C)CC(NC(=O)C(Cc1ccccc1)NC(=O)c1cnccn1)B(O)O` (stereo not given), the viability, T/C (compound alone 0.001 µM) is 43.7% [2022-01] and 0.71% [2022-02].

For `NC1CCC(NC2CC2c2ccccc2)CC1` (stereo not given), the viability, T/C (compound alone 0.1 µM) is 115, 120 (4×), 124, 119, 142, 126 (2×), 108, 129 (2×), 136, 138, 135, 141, 109, 121 (2×), 112, 143, 128, 125%; the viability, T/C (compound alone 1 µM) is 112, 121, 101, 122, 106 (2×), 136, 131, 127 (2×), 135, 162, 139, 119 (2×), 117, 113, 96.3, 114, 116, 133, 111, 115, 143, 109%; the viability, T/C (compound alone 3.16 µM) is 116 (2×), 98.2, 122, 100, 123 (2×), 117, 129 (3×), 124, 111 (2×), 133, 125 (2×), 144, 101, 120, 103, 113, 118, 107, 109%; the viability, T/C (compound alone 10 µM) was 100, 81.5, 85.3, 94.5, 98.5, 104 (3×), 99.3, 98.2, 123, 95.8, 106, 97.8, 81, 82.3, 91.2, 95.5 (2×), 90.6, 86, 114, 83.7%.

`NC1CC1c1ccc(-c2cccc(O)c2)cc1` (stereo not given): the viability, T/C (compound alone 0.316 µM) is 135, 119 (2×), 118, 133, 110 (2×), 134, 142, 136, 108, 127, 143, 123, 128, 129, 111, 113, 109, 95.6, 124, 122, 100, 149, 131%; the viability, T/C (compound alone 1 µM) is 122, 131 (3×), 116, 136, 107, 140 (2×), 108, 117 (3×), 138 (2×), 114 (2×), 120, 113 (2×), 91.8, 134 (2×), 119%; the viability, T/C (compound alone 3.16 µM) is 119 (3×), 120, 106, 115 (2×), 89.9, 123, 121, 110 (2×), 126, 132, 116, 134, 104 (2×), 109, 107, 63.8, 111, 135, 114, 128%; the viability, T/C (compound alone 10 µM) is 89.8, 95, 83.8, 89.1, 71.5, 85.2, 93.7 (2×), 89.9, 83.9, 91.2, 75.7, 87.3, 81.2, 83.5, 76.6, 86.4, 83.7, 54.4, 88.3, 87.7, 84.1, 104, 82.4, 80.6%.

On to `CC1COCCN1c1cc(-c2ccnn2C)c2ccnc(-c3ccn[nH]3)c2n1` (stereo not given), for which, for the setting “compound alone 0.00316 µM”, the viability, T/C is 32% [2022-01] and 3.08% [2022-02].
